{"source": "patent US20020058020A1", "about": "“Isolated amphiphilic peptides derived from the cytoplasmic tail of viral envelope proteins” (priority 1999, published 2002)", "test": "Planar lipid bilayer integrity assay (current induction across voltage-clamped membrane)", "details": "3 μM peptide, membrane at +50 mV"}
{"sequence": "ILNRLVQFVKDRISVVQAL (Moloney murine sarcoma virus) [Peptide 598-616]", "values": [{"measurement": "planar membrane destabilizing activity (in words)", "result": "causes increase in a non-selective planar membrane conductance that leads to membrane rupture"}]}
